{"source": "paper PMC4336329", "about": "(PLoS ONE, 2015)", "note": "In all, about 310,000 compounds went through this assay and about 14,000 (4.5%) showed an effect of 50% or more. Effects have a minus sign here. This is one part of the list.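 Note: peak tail current of the secondary pulse compared with the same well before compound.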", "data": [{"biological_target": "human ether-à-go-go-related gene (hERG) potassium channel (human, UniProt Q12809)", "sequence (Q12809 whole entry, looked up)": "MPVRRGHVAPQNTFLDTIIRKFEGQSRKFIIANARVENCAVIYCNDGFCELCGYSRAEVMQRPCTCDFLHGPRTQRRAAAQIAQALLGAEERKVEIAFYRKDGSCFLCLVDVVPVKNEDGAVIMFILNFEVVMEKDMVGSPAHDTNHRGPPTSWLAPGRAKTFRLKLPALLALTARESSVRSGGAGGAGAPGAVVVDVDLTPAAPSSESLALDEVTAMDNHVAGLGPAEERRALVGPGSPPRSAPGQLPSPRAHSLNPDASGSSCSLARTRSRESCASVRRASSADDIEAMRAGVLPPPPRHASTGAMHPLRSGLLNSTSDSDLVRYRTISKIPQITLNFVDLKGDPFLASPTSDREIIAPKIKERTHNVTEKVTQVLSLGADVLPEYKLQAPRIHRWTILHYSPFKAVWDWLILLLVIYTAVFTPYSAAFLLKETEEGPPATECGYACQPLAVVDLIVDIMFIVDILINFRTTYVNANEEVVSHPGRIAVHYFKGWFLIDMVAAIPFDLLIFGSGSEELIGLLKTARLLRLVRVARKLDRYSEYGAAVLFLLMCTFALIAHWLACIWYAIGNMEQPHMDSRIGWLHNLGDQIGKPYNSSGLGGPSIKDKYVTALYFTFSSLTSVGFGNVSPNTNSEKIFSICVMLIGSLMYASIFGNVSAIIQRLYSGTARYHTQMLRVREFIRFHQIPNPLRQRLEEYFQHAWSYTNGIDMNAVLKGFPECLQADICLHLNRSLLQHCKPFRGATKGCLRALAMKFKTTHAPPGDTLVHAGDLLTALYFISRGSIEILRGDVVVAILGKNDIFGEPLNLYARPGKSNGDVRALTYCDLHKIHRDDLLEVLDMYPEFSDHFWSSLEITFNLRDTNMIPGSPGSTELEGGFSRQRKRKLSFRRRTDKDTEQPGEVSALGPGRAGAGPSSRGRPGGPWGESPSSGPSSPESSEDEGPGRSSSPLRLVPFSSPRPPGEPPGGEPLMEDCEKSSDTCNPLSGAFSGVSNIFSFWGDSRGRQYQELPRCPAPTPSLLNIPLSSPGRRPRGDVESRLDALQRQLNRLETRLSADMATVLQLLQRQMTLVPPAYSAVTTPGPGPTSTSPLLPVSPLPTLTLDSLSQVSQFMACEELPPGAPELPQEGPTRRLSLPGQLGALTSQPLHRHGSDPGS", "assay": "primary screen, population patch clamp on CHO cells stably expressing hERG", "units": {"hERG current change (%, negative = inhibition) at 10uM": "%"}, "values": [{"smiles": "O=C(CSc1ccc2nnc(-c3cccnc3)n2n1)NCc1ccc2c(c1)OCO2", "hERG current change (%, negative = inhibition) at 10uM": -53.3}, {"smiles": "CC(C(=O)NCCc1ccccc1)N1c2cccc3cccc(c23)S1(=O)=O", "note": "(centres unmarked)", "hERG current change (%, negative = inhibition) at 10uM": -21.2}, {"smiles": "Cc1ccc(N(CCCCN2C(=O)c3ccccc3C2=O)C(=O)c2ccc(Cl)s2)cc1", "hERG current change (%, negative = inhibition) at 10uM": 2.79}, {"smiles": "COc1cccc(C(=O)NCCCN2CCN(CCCNC(=O)c3cccc(OC)c3)CC2)c1", "hERG current change (%, negative = inhibition) at 10uM": -85.4}, {"smiles": "CCCCc1ccc(NC(=S)N2CCN(C(=O)c3ccco3)CC2)cc1", "hERG current change (%, negative = inhibition) at 10uM": -75.3}, {"smiles": "COc1ccc(CN=C2NC(=O)CC(C(=O)Nc3ccc(Cl)cc3)S2)cc1", "note": "(centres unmarked)", "hERG current change (%, negative = inhibition) at 10uM": -7.8}, {"smiles": "COc1ccc(NS(=O)(=O)c2cccc(C(=O)NNC(=O)c3ccccc3OC)c2)cc1", "hERG current change (%, negative = inhibition) at 10uM": -16.4}, {"smiles": "O=C1CC(N2CCN(Cc3ccc4c(c3)OCO4)CC2)C(=O)N1Cc1ccc(N2CCCC2=O)cc1", "note": "(centres unmarked)", "hERG current change (%, negative = inhibition) at 10uM": 5.51}, {"smiles": "CC(=O)OCCNC(=O)c1cc2ccccc2oc1=O", "hERG current change (%, negative = inhibition) at 10uM": 9.06}, {"smiles": "O=C(CSc1nnc(-c2ccc([N+](=O)[O-])cc2)o1)Nc1ccccn1", "hERG current change (%, negative = inhibition) at 10uM": 16}, {"smiles": "Cc1ccc(S(=O)(=O)N(C)c2ccccc2C(=O)N2CCCC2)cc1", "hERG current change (%, negative = inhibition) at 10uM": -1.96}, {"smiles": "CC(=O)Nc1ccc(NC(=O)CC(C)n2ccnc2)cc1", "note": "(centres unmarked)", "hERG current change (%, negative = inhibition) at 10uM": 7.66}, {"smiles": "O=C(CC1(O)C(=O)N(Cc2cccc3ccccc23)c2ccccc21)c1cccnc1", "note": "(centres unmarked)", "hERG current change (%, negative = inhibition) at 10uM": -17.5}, {"smiles": "COc1cc(OC)c(OC)cc1CCC(C)NCCC(c1ccccc1)c1ccccc1.Cl", "note": "(centres unmarked)", "hERG current change (%, negative = inhibition) at 10uM": -71.1}, {"smiles": "Cc1c2cnn(CC(=O)N3CCC4(CC3)OCCO4)c(=O)c2c(C)n1Cc1ccc(F)cc1", "hERG current change (%, negative = inhibition) at 10uM": -7.31}, {"smiles": "COc1ccc(-n2c(SCC(=O)Nc3ccc4c(c3)OCO4)nc3c(c2=O)SCC3)cc1", "hERG current change (%, negative = inhibition) at 10uM": -10.9}, {"smiles": "COC1(c2cc(-c3ccccc3)nc(N)n2)CCCCC1", "hERG current change (%, negative = inhibition) at 10uM": -11.4}, {"smiles": "COc1ccc(/C=N/NC(=O)CCn2nnc3ccccc32)cc1", "hERG current change (%, negative = inhibition) at 10uM": 6.87}, {"smiles": "C=CCNC(=O)c1ccccc1S(=O)c1ccccc1C#N", "note": "(centres unmarked)", "hERG current change (%, negative = inhibition) at 10uM": 9.8}, {"smiles": "Cc1ccc2cc3c(NC(=O)c4ccco4)nn(CC(C)C)c3nc2c1", "hERG current change (%, negative = inhibition) at 10uM": 3.99}, {"smiles": "Nc1nnc(SCC(=O)NC2CCCc3ccccc32)s1", "note": "(centres unmarked)", "hERG current change (%, negative = inhibition) at 10uM": 5.52}, {"smiles": "COc1ccccc1NC(=S)Nc1cccc(F)c1", "hERG current change (%, negative = inhibition) at 10uM": 12.6}, {"smiles": "CNC(=O)N(O)C1N(C)C(=O)N(CC(=O)OC)C1(C)C", "note": "(centres unmarked)", "hERG current change (%, negative = inhibition) at 10uM": 1.55}, {"smiles": "CC(C)(C)c1ccc(-c2c(C(=O)O)c(C(=O)O)c3n2CSC3)cc1", "hERG current change (%, negative = inhibition) at 10uM": 12.8}, {"smiles": "Cc1ccc(CNC(=O)c2ccc(NS(=O)(=O)c3c(C)noc3C)cc2)cc1", "hERG current change (%, negative = inhibition) at 10uM": -6.03}, {"smiles": "COc1cc(Cl)c(C)cc1Nc1ncccn1", "hERG current change (%, negative = inhibition) at 10uM": 4.73}, {"smiles": "Cc1cccn2c(=O)c3cc(C(=O)N4CCN(Cc5ccccc5)CC4)sc3nc12", "hERG current change (%, negative = inhibition) at 10uM": -79.7}, {"smiles": "COc1ccccc1C(=O)NCCC(=O)NCc1ccccn1", "hERG current change (%, negative = inhibition) at 10uM": -2.66}, {"smiles": "COc1ccc(C(=O)N2N=C(c3cccc(OC)c3)CC2(O)C(F)(F)F)cc1", "note": "(centres unmarked)", "hERG current change (%, negative = inhibition) at 10uM": 6.39}, {"smiles": "Cc1cc(-c2c(C(=O)N3CCOCC3)c(C)nn2-c2ccccc2)no1", "hERG current change (%, negative = inhibition) at 10uM": 11.7}, {"smiles": "CCCCC(=O)NC(=S)Nc1cc([N+](=O)[O-])ccc1OC", "hERG current change (%, negative = inhibition) at 10uM": -39.9}, {"smiles": "Cc1ccc(Nc2nc(C)c3c(n2)CC(C)CC3=O)c(C)c1", "note": "(centres unmarked)", "hERG current change (%, negative = inhibition) at 10uM": -5.19}, {"smiles": "CC(C)Cc1cc(C(=O)Nc2ccc(F)cc2F)no1", "hERG current change (%, negative = inhibition) at 10uM": -2.85}, {"smiles": "O=C(Nc1ccc(Br)cc1)/C(=C/c1cccc([N+](=O)[O-])c1)NC(=O)C1CCCCC1", "hERG current change (%, negative = inhibition) at 10uM": -16}, {"smiles": "CCC(C)n1cnc2c(=O)oc3ccccc3c21", "note": "(centres unmarked)", "hERG current change (%, negative = inhibition) at 10uM": -12}, {"smiles": "N#Cc1ccccc1OCC(=O)Nc1ccccc1C(=O)NC1CC1", "hERG current change (%, negative = inhibition) at 10uM": -5.44}, {"smiles": "Nc1nc(Nc2cccc(F)c2)nc(N2CCOCC2)c1[N+](=O)[O-]", "hERG current change (%, negative = inhibition) at 10uM": -26.7}, {"smiles": "CC(=O)Oc1ccc(Oc2ccc(-c3noc(C)n3)cc2)cc1", "hERG current change (%, negative = inhibition) at 10uM": 18.1}, {"smiles": "CC(=NCCN1CCCCC1)c1c(O)[nH]c(=O)[nH]c1=O", "hERG current change (%, negative = inhibition) at 10uM": -1.06}, {"smiles": "Cc1onc(-c2c(F)cccc2Cl)c1C(=O)OCC(=O)NCc1ccco1", "hERG current change (%, negative = inhibition) at 10uM": 5.77}, {"smiles": "Cc1ccc(Cl)cc1-n1c(=O)cc(N2CC(C)OC(C)C2)[nH]c1=O", "note": "(centres unmarked)", "hERG current change (%, negative = inhibition) at 10uM": 0.474}, {"smiles": "O=C(COc1ccccc1Cl)Nc1ccc(CN2CCOCC2)cc1", "hERG current change (%, negative = inhibition) at 10uM": -22.9}, {"smiles": "O=C(O)C1CCCN1c1nc(C(F)(F)F)nc2ccccc12", "note": "(centres unmarked)", "hERG current change (%, negative = inhibition) at 10uM": 12.3}, {"smiles": "CCN(C(=O)COC(=O)c1ccc(O)cc1O)c1c(N)n(Cc2ccccc2)c(=O)[nH]c1=O", "hERG current change (%, negative = inhibition) at 10uM": -7.36}]}]}
